Measured values taken from PubChem BioAssay AID485313 (National Center for Advancing Translational Sciences (NCATS), 2010).
Out of some 320,000 compounds screened, about 7,600 (2.4%) were called active. The shares of active, inactive and inconclusive entries below differ from those in the screen. The call rests on the fitted dose curve; in most records, active means well fitted activation curve with a large enough effect; inconclusive means small, poorly fitted or top-dose-only effect; inactive means no such curve, though single readings can be large or run the other way. Potencies beside an inconclusive call are fits to weak or partial responses and may not hold up.

Test: qHTS Assay for NPC1 Promoter Activators; further: nearly all actives have a fitted effect of over 60% in size;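 on activation: reporter is driven by a mutant NPC1 promoter; % of control where 0% means no effect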
Conditions: Huh7 NPC1 promoter luciferase reporter, 24 h; series mostly up to 9.22 µM; activation: at the top concentration
Outline: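 NPC1 promoter–luciferase Huh7 cells; 24 h compound; luminescence.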
Potency means the concentration at half of the fitted maximal effect; tags describe the fitted curve by direction and shape.

Potency, inconclusive:
O=[N+]([O-])c1ccc(Cl)c(S(=O)(=O)Nc2cccc(-c3ccc(N4CCOCC4)nn3)c2)c1 2.82 µM [activator, partial curve]
Cc1ccc2c3c([nH]c2c1C)-c1nonc1CC3 3.98 µM [activator, partial curve]
COc1ccccc1N1CCN(C2=Nc3cccc4cccc2c34)CC1 3.98 µM [activator, partial curve]
CCCc1cc2c(=O)c(-c3ccc4c(c3)OCCO4)coc2cc1OS(C)(=O)=O 3.55 µM [activator, partial curve]
Cc1ccn2cc(-c3nonc3C)cc2c1 3.98 µM [activator, partial curve]
CCOC(=O)NC(Nc1ncccn1)(C(F)(F)F)C(F)(F)F 3.55 µM [activator, single point]
Cc1ccc(F)cc1NC(=O)CCc1c(C)nn(-c2ccc(N3CCCCC3)nn2)c1C 3.16 µM [activator, partial curve]
CC(=O)c1cccc(NC(=O)N2CCC(c3ccc(C)cc3)C2)c1 (stereo not given) 3.16 µM [activator, partial curve]
COc1ccc(C(=O)N/N=C/c2cccnc2)cc1 5.62 µM [activator, single point]
Cc1cccc(N=Nc2c(O)[nH]c3ccc(Br)cc23)c1 3.16 µM [activator, single point]
O=C(Nc1ccccc1C(=O)O)c1ccc2ccccc2n1 3.55 µM [activator, single point]
Cc1cc(C)c2c(N)c(C(=O)Nc3ccccc3Br)sc2n1 2.51 µM [activator, partial curve]
c1ccc(-c2ccc(SCc3cccnc3)nn2)nc1 3.16 µM [activator, partial curve]
O=C(CSc1n[nH]c(-c2ccccn2)n1)Nc1ccccc1F 5.62 µM [activator, single point]
COc1ccc(OCCNC(=O)c2ccc(C)cc2)cc1 3.55 µM [activator, single point]
Cc1ccc(Cn2ccc(NC(=O)c3nn(C)cc3Cl)n2)cc1 3.98 µM [activator, partial curve]
CCOC(=O)c1[nH]c2ccc(OC)cc2c1C 5.62 µM [activator, single point]
COc1ccc(-c2csc(NC(=O)CC(C)C)n2)cc1 3.55 µM [activator, single point]
CCN1CCN(Cc2ccc(NC(=O)Nc3ccccc3OC)cc2)CC1 2.82 µM [activator, partial curve]
O=C(Nc1cccc(-c2nnc(-c3ccccc3)o2)c1)C1CCCO1 (stereo not given) 1.41 µM [activator, full curve, poor fit]
Cc1cc(/C=C2\SC(=S)NC2=O)c(C)n1C1CC1 6.31 µM [activator, partial curve]
COc1ccccc1/C=C/C(=O)NC(=S)Nc1ccccn1 6.31 µM [activator, single point]
c1c2c(cc3sc(N4CCCCC4)nc13)OCCO2 0.891 µM [activator, partial curve]
COc1ccc(-c2nnc(SCC(=O)N3CCCC3)o2)cc1 2.82 µM [activator, partial curve]
O=C(Nc1nc2ccccc2[nH]1)c1ccc(Br)o1 6.31 µM [activator, single point]
CCOC(=O)c1cc(NC(=O)N(CC)C2CCCCC2)c(C)nc1C 3.16 µM [activator, single point]
CC(C)c1ccc(NC(=S)NNC(=O)c2cccs2)cc1 3.55 µM [activator, partial curve]

Potency, active:
Cc1ccc(C(=O)Nc2cccc(C(=O)N/N=C/c3ccc(F)cc3)c2)cc1 2.24 µM
CCOC(=O)c1csc(NC(=O)C2=COCCO2)n1 2.51 µM
CCCCNc1c(-c2ccc(SC3CCCCC3)cc2)nc2ccccn12 2.82 µM
O=C(NC1CC1)c1cc2cc3ccccc3nc2s1 2.24 µM
COc1ccc(NC(=O)C#Cc2ccccc2)cc1 1.41 µM
Cc1cc(C)cc(C(=O)Nc2ccc(N3CCCC3)cc2)c1 2.24 µM
O=C(NCCc1c[nH]c2ccccc12)c1ccc2c(c1)OCO2 1.12 µM
O=C(O)C1CCC(c2ccc(-c3ccccc3)cc2)CC1 (stereo not given) 2.82 µM
Cc1ccc(-c2nc3cc(N)ccc3o2)cc1 0.447 µM
COc1cccc(-c2noc(-c3ccc(Cl)nc3)n2)c1 3.55 µM

activation, inactive:
CC(=O)CCc1ccc(OCCCOc2cccc3cccnc23)cc1 5.1%
O=C(N/N=C/c1cn(CCOc2ccccc2)c2ccccc12)c1ccncc1 0.652%
Cc1cc(=O)[nH]c(Nc2ccc(C(=O)OC(C)C)cc2)n1 -0.0521%
COc1ccc(C(=O)N(CCc2ccccc2)Cc2ccccc2)c(OC)n1 -0.891%
Cc1cc(NC(=O)c2ccc(C)c([N+](=O)[O-])c2)no1 10.1%
Cc1ccc(S(=O)(=O)NC(=O)NCc2ccccc2)cc1 -1.1%
CCCCN(CC)C(=O)CSc1nc2c(sc(=S)n2-c2ccc(OCC)cc2)c(=O)[nH]1 -1.65%
O=C(CN1C(=O)S/C(=C\C=C\c2ccccc2)C1=O)Nc1ccc(C(=O)O)cc1 2.95%
COc1ccc(CCN(C)C(=O)CNC(=O)c2ccc3c(c2)OCO3)cc1OC -2.73%
COc1ccc(C(CNC(=O)c2cncc(Br)c2)N(C)C)cc1 (stereo not given) 0.108%
O=C(N/N=C/c1cccnc1)c1ccccc1 16.4%
COc1ccc(C(CNC(=O)c2cccc(S(=O)(=O)NCc3ccccc3)c2)N(C)C)cc1 (stereo not given) 0.582%
Cc1nc2scc(-c3cccs3)c2c(=O)[nH]1 -0.584%
